Hit rate of the full screen: of about 310,000 compounds, about 2,200 (0.71%) showed an effect of 50% or more. The effect is printed as a negative number. The list shows a part of the results.
target: human ether-à-go-go-related gene (hERG) potassium channel (human, UniProt Q12809); assay: primary screen, population patch clamp on CHO cells stably expressing hERG
Sequence (Q12809 whole entry, looked up): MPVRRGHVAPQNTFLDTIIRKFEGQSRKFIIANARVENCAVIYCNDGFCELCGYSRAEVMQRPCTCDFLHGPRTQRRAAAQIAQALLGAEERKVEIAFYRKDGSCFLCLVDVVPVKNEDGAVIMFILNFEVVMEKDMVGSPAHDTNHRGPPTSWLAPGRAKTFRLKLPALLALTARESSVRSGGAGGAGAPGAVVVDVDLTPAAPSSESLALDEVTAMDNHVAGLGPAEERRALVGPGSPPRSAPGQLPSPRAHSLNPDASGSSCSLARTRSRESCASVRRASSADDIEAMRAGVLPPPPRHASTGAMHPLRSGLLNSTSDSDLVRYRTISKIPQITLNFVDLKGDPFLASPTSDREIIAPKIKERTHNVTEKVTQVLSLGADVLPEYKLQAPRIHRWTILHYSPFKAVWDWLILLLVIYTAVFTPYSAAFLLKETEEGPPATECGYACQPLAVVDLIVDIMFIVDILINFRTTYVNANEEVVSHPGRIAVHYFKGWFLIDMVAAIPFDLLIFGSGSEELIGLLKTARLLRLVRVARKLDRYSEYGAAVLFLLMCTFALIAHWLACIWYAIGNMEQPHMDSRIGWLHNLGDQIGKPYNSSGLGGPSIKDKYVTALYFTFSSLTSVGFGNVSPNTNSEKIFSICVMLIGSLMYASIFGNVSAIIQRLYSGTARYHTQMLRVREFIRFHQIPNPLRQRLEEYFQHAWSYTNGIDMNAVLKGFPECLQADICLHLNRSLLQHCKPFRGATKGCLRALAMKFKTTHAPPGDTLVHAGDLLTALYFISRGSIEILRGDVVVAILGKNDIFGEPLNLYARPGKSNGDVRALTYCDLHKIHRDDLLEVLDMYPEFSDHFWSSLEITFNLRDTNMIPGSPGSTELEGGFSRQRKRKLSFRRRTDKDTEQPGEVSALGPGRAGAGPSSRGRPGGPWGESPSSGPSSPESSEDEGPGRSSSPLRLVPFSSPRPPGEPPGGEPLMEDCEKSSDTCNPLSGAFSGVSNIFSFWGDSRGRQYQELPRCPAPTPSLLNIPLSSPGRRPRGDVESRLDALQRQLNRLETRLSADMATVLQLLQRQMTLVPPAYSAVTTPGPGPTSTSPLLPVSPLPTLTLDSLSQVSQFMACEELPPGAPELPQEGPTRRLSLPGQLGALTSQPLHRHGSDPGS

Row | Compound | hERG current change (%, negative = inhibition) at 1uM [%]
1 | N/C(Cc1ccc(Cl)cc1Cl)=N\OC(=O)Cc1ccccc1 | 11.2
2 | CC(C)CNC1CS(=O)(=O)CC1O.Cl (stereo not shown) | 6.27
3 | O=S(=O)(c1ccccc1F)N1CCC(c2nc3ccccc3[nH]2)CC1 | 2.11
4 | CC1=Nn2c(nc(-c3ccccc3)c2-c2ccccc2)NC(=O)C1Br (stereo not shown) | 7.45
5 | Cc1ccc(NC(=S)N2CCCCC2)cc1C | 14.9
6 | COc1cccc(CNS(=O)(=O)/C=C/c2ccc3c(c2)OCO3)c1 | 10.1
7 | NC(=O)c1c(NC(=O)c2ccc(N3C(=O)CCC3=O)cc2)sc2c1CCCC2 | 2.93
8 | CC(=O)c1ccc(Sc2ccccc2)c([N+](=O)[O-])c1 | 5.05
9 | O=C(CSc1nnc(-c2ccccc2)o1)Oc1ccc(Br)cc1 | -0.433
10 | Nc1c(C(=O)N/N=C/c2ccccc2Cl)oc2nc(-c3ccccc3)cc(-c3ccco3)c12 | 19.3
11 | COc1ccccc1CCNC(=O)C1CCN(c2nnc(C)c3c(C)n(-c4ccc(C)cc4)nc23)CC1 | 14.7
12 | CC(OC(=O)c1ccc(S(=O)(=O)NCc2ccco2)cc1)C(=O)Nc1ccc(Cl)cn1 (stereo not shown) | -7.78
13 | Cc1c(NS(=O)(=O)c2ccc3c(c2)CCN3C(=O)C2CC2)c(=O)n(-c2ccccc2)n1C | -0.286
14 | O=C(C[n+]1ccccc1)N/N=C/c1cccs1.[Cl-] | 1.9
15 | CCc1cccc(C)c1N1C(=O)CN(Cc2ccccc2)C1=S | 2.53
16 | COc1ccc(CCNC(=O)c2ccc(CS(=O)(=O)c3ccc(Br)cc3)o2)cc1OC | -0.871
17 | COCCn1c(SCC(=O)NC2CCCC2)nc2c(c1=O)SCC2 | 12.7
18 | CSc1ccccc1NC(=O)CN(C)CC(=O)Nc1ccccc1N1CCOCC1 | 23.2
19 | O=C(CN1C(=O)NC2(CCCC2)C1=O)Nc1ccc(Cl)cc1F | 14.7
20 | CCCCN(C(=O)C1=NN(c2ccccc2)C(=O)CC1)c1c(N)n(CC(C)C)c(=O)[nH]c1=O | 5.19
21 | O=C(OC1CCCCC1=O)c1cc(S(=O)(=O)N2CCOCC2)ccc1F (stereo not shown) | 13.7
22 | COc1ccc2c(c1)c1ncn(CCCN3CCOCC3)c(=O)c1n2C | -8.9

Row | Compound | hERG current change (%, negative = inhibition) at 1uM [%]
23 | CCOC(=O)C1=C(COC(=O)/C=C/c2cc(Br)ccc2F)NC(=O)NC1C (stereo not shown) | 7.15
24 | O=C(CN1C(=O)NC2(CCCC2)C1=O)OCc1ccccc1 | 6.03
25 | CCNC(=O)OCC12CC3CC(CC(C3)C1)C2 | 4.37
26 | CC(C)Oc1ccc(C(=O)NCC(=O)N2CCN(S(=O)(=O)/C=C/c3ccccc3)CC2)cc1 | -40.6
27 | CC(C)CNS(=O)(=O)c1ccc(CCC(=O)NCCC2=CCCCC2)cc1 | 12.6
28 | CCOc1ccc(Cn2cc(F)c(=O)[nH]c2=O)cc1 | 13.4
29 | CC1CCCN(c2ccc3nncn3n2)C1 (stereo not shown) | 10.7
30 | Cc1nc(NCCN)c(C#N)c2c1COC(C)(C)C2 | 14.3
31 | O=S(=O)(Nc1ccccc1C(F)(F)F)c1ccc(-c2ccccn2)s1 | 4.24
32 | COc1ccc(-n2c3c(c(=O)[nH]c2=O)C(NC(C)=O)(C(F)(F)F)C(=O)N3)cc1 (stereo not shown) | 3.37
33 | O=C(COc1cccc(NC(=O)c2ccccc2)c1)c1ccccc1 | -0.784
34 | Cc1ccc(-n2c(C)cc(C)c(C#N)c2=O)cc1 | 20.6
35 | Cc1ccc(NC(=O)N2CCC(NC(=O)c3ccccc3C)CC2)cc1 | 8.79
36 | CC(C)n1c(SCC(=O)N2CCN(C)CC2)nc2c1c(=O)n(C)c(=O)n2C | 10.2
37 | O=C(Nc1ccc(F)cc1F)C1CCN(c2ncnc3c2sc2cccc(F)c23)CC1 | 14.9
38 | NS(=O)(=O)c1ccc(CCNC(=O)C(=O)NCC2OCCN2S(=O)(=O)c2cc(F)ccc2F)cc1 (stereo not shown) | 15
39 | CC(=O)Nc1ccc(S(=O)(=O)NC2CC(=O)N(c3ccc(C)cc3)C2)cc1 (stereo not shown) | 12.1
40 | CCC(C)n1c(SCC(=O)NC(=O)c2cccn2C)nc2ccccc2c1=O (stereo not shown) | 5.1
41 | O=C1/C(=C/c2cccc([N+](=O)[O-])c2)N2CCC1CC2 | 6.93
42 | CCOc1ccc(C2CC(=O)NC3=C2C(=O)CCC3)cc1 (stereo not shown) | 9.68
43 | O=C(Cn1nc(C(=O)O)c2ccccc2c1=O)c1c[nH]c2ccccc12 | -10.4
44 | Cn1c(SCC(=O)c2ccc(O)cc2O)nnc1-c1ccccc1 | 14.2

Row | Compound | hERG current change (%, negative = inhibition) at 1uM [%]
45 | C=CCN(C(=O)c1csnn1)C(C(=O)NC(C)(C)C)c1ccncc1 (stereo not shown) | 20.2
46 | Cc1nn(C)c(C)c1CCC(=O)O | 12.5
47 | Cc1cnn(Cc2ccccc2)c1N | 17.9
48 | COc1ccc(OCC(=O)NCCCN2CCOCC2)cc1 | 10.4
49 | COc1ccc(S(=O)(=O)N2CCCCCC2)cc1NC(=O)CCCOc1ccccc1 | 6.66
50 | Cc1csc(NC(=O)c2cccc(C)c2C)n1 | 12.4
51 | COc1ccc(/C=C(/C#N)C(=O)Nc2cccc(C)c2C)cc1C(=O)O | 13.2
52 | COC(=O)c1cccc(N(C(=O)CNC(=O)c2ccco2)C(C(=O)NC2CCCC2)c2ccco2)c1 (stereo not shown) | 13.1
53 | COc1ccc(-c2ccc(=O)n(Cc3cc(=O)n4ccccc4n3)n2)cc1 | -1.7
54 | NC(=O)[C@@H]1CCCNc2c(F)cc([N+](=O)[O-])cc2C(=O)N[C@@H](CCC(=O)O)C(=O)N[C@@H](CO)C(=O)N1 | 6.41
55 | C/C(CC(=O)Nc1ccc(Cl)cc1Cl)=N\NC(=O)c1cnccn1 | 12
56 | CC(C)N1CCN(Cc2cccc([N+](=O)[O-])c2)CC1 | 9.88
57 | CSc1nnc(-c2ccncc2)n1CCCN1CCCC1=O | 12.2
58 | O=C(CCN1CCOCC1)NCC(=O)Nc1ccc(Br)cc1C(=O)c1ccccc1 | -17.6
59 | Cc1cnnn1-c1cccc([N+](=O)[O-])c1 | -2.85
60 | O=C(NC1(C(F)(F)F)NC(=O)N(Cc2cccnc2)C1=O)c1ccncc1 (stereo not shown) | 18.1
61 | COc1ccccc1N/C(=N/S(=O)(=O)c1ccc(C)cc1)c1ccc(Cl)cc1 | -15.5
62 | CCOC(=O)c1ccccc1NC(=O)COC(=O)CCNS(=O)(=O)c1ccccc1 | 11.2
63 | COc1cc(/C=C/C(=O)c2ccc3c(c2)OCO3)cc(Cl)c1O | 5.7
64 | COc1ccc([N+](=O)[O-])cc1NC(=O)CN(C)S(=O)(=O)c1ccccc1 | -13.8
65 | CCOc1ccc(N2C(=O)CC(N3CCN(c4ccc(C(=O)c5ccncc5)cc4)CC3)C2=O)cc1 (stereo not shown) | -4.77
66 | Cc1ccc(-n2nc(-c3ccco3)cc2C(=O)O)cc1 | 10.2

Row | Compound | hERG current change (%, negative = inhibition) at 1uM [%]
67 | CN(C)c1ccc(C(=O)OCC(=O)NCCNC(=O)COC(=O)c2ccc(N(C)C)cc2)cc1 | 8.13
68 | CN1CCCC(OC(=O)c2cc(Cl)ccc2Cl)C1 (stereo not shown) | 9.58
69 | O=C(NCc1cccnc1)C(=O)N/N=C/c1ccccc1[N+](=O)[O-] | -7.87
70 | COCCNC(=O)C(=O)N/N=C/c1ccc(C(=O)OC)cc1 | 15.7
71 | O=C(NCCSCc1ccco1)Nc1ccccc1 | 18.6
72 | CCN(CC(=O)Nc1c(F)cccc1F)C(=O)CCSc1ccc(F)cc1 | 13.7
73 | Cn1c(Oc2ccccc2NCc2cccc(Br)c2)cc(=O)n(C)c1=O | 6.2
74 | C=C/C(C)=C/CC1C(=C)CCC2C(C)(C(=O)O)CCCC12C (stereo not shown) | 11
75 | CC(C)c1nnc(NC(=O)CCC(=O)Nc2ccc3cn[nH]c3c2)s1 | 10.6
76 | CCCCNC(=O)NC(C(N)=O)P(=O)(OCC)OCC (stereo not shown) | 10.6
77 | COC(=O)c1ccccc1Oc1c(F)c(F)nc(N2CCOCC2)c1F | -1.26
78 | COC(=O)C1=C(c2ccc3ccccc3c2)C[C@@H]2CC[C@H]1N2C | 11.5
79 | Cc1cccn2c(=O)nc(SCC(=O)Nc3cccc4ccccc34)nc12 | 1.58
80 | COc1ccc(C(C(=O)NC2CCCCC2)N(Cc2cccs2)C(=O)Cc2c[nH]c3ccccc23)cc1OC (stereo not shown) | -12.4
81 | COC(=O)c1ccc(CSc2nc3ccc(S(N)(=O)=O)cc3[nH]2)cc1 | 11.6
82 | COc1ccc(F)c(CN2CCC(n3nccc3NC(=O)CCCc3ccccc3)CC2)c1 | -36.3
83 | c1ccc(-n2c(Sc3cnccn3)nnc2-c2cccs2)cc1 | -13.3
84 | CSC(=NNC(=O)c1ccccc1O)SC | -5.89
85 | CCOC(=O)c1c(CC(C)C)csc1NC(=O)CCl | 6.26
86 | Cn1c(=O)n(Cc2ccco2)c(=N)c2c3c(sc21)CCC3 | -29.3
87 | Cc1nn(-c2ccccc2)c2sc(C(=O)NNC(=O)COc3ccccc3)cc12 | 6
88 | OCC[C@@H]1C[C@@H](O)[C@H](O)[C@]2(CCCO2)O1 | -0.555

— PMC4336329 (PLoS ONE, 2015)
